According to PMC10920779, “Targeting P2Y14R protects against necroptosis of intestinal epithelial cells through PKA/CREB/RIPK1 axis in ulcerative colitis” (Nature Communications, 2024):
pIC50: −log10 of the molar value.

Tests used:
Ripk1 mRNA [1] = assay: RT-PCR of Ripk1 mRNA in HT-29 cells; type: cell-based, human; conditions: siP2Y14R HT-29 cells + TSZ
Excerpt: (§1) Total RNA was extracted from cells or colonic tissues using Trizol (Thermo) under the manufacturer’s instructions. First strand cDNA was synthesized using the PrimeScript RT Reagent Kit (480, Abm). SYBR Green Master Mix reagents (Q331-02, Vazyme) and primer mixtures (Table S1) were used for the real-time PCR. […] The procedure was as described in the kit provided by the manufacturer. Briefly, isolated IECs were fixed by 1% formaldehyde, and fragmented by sonication. CREB was then used for immunoprecipitation. After washing and reverse-crosslinking, the precipitated DNA was amplified by primers and quantified by the qPCR. Primer sequences can be found in Supplementary Table 1.

HCT-116 cells = assay: TSZ-induced necroptosis in HCT-116 cells (PI/Hoechst staining); type: cell-based, human; conditions: for siP2Y14R-derived protection against TSZ-induced necroptosis: P2Y14R silencing HCT-116 cells, pre-treatment
Description: Necroptosis was induced by pretreatment with TNF‐α (20 ng·mL^−1) plus z‐VAD‐fmk (20 μM) and Smac mimetic (BV6, 2 μM) for 8 h, then stained cells with hematoxylin/eosin. For PI/Hoechst staining, cells were stained with PI and Hoechst for 20 min, then photographed with a fluorescence microscope and at least 300 cells were counted. The ratio of PI positive cells (%) = (PI positive cells) / (Hoechst positive cells) × 100%. For cell viability assay, CCK8 was added to the well and incubated for 1 − 2 h and then OD450 was measured using a multi-mode microplate reader (Cytation5, BioTek).

Ripk1 mRNA [2] = assay: RT-PCR of Ripk1 mRNA in HCT-116 cells; type: cell-based, human; conditions: siP2Y14R HCT-116 cells + TSZ
Excerpt: as §1

P2Y14R = biological target: T1, P2Y14R (Homo sapiens, UniProt Q15391); assay: cAMP production assay for P2Y14R antagonistic activity in P2Y14-HEK293 cells; conditions: read-out: In vitro P2Y14R affinity (IC50); Supplementary Table 2, compounds 5a-5i
T1 sequence (Q15391 1-338): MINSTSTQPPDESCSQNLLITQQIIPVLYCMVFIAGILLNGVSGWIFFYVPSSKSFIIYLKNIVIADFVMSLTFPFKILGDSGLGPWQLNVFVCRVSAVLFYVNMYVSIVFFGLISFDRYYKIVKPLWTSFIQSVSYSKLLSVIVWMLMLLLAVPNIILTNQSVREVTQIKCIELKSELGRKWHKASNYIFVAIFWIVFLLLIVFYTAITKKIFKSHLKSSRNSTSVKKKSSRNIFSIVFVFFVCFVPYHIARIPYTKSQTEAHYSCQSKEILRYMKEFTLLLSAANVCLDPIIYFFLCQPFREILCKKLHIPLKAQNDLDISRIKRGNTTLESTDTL

SMILES | pIC50 (P2Y14R) | further results
Nc1ncnc2c1ncn2C1CCCO1 (stereo not shown) [SQ22536] |  | Ripk1 mRNA level (Ripk1 mRNA [1]): greatly up-regulated the level of Ripk1; siP2Y14R-derived protection against TSZ-induced necroptosis (HCT-116 cells): disrupted the protective effect; Ripk1 mRNA level (Ripk1 mRNA [2]): greatly up-regulated the level of Ripk1
COc1ccc(NCc2nc3ccccc3o2)cc1 [5g] | 8.11 | 
Clc1ccc(NCc2nc3ccccc3o2)cc1 [5f] | 8.90 | 
O=S(=O)(NCCNC/C=C/c1ccc(Br)cc1)c1cccc2cnccc12 [H-89] |  | Ripk1 mRNA level (Ripk1 mRNA [1]): greatly up-regulated the level of Ripk1; siP2Y14R-derived protection against TSZ-induced necroptosis (HCT-116 cells): disrupted the protective effect; Ripk1 mRNA level (Ripk1 mRNA [2]): greatly up-regulated the level of Ripk1
Brc1ccc(NCc2nc3ccccc3o2)cc1 [5i] | 7.88 | 
Cc1ccc(NCc2nc3ccccc3o2)cc1 [5h] | 8.56 | 
Clc1cccc(NCc2nc3ccccc3o2)c1 [5c] | 7.91 | 
COc1cccc(NCc2nc3ccccc3o2)c1 [5d] | 8.61 | 
Brc1cccc(NCc2nc3ccccc3o2)c1 [5b] | 9.48 | 
c1ccc(NCc2nc3ccccc3o2)cc1 [5a] | 8.27 | 
CC(C)S(=O)(=O)c1ccc2nccc(Nc3ccc4scnc4c3)c2c1 [GSK’872] |  | UDP-glucose derived damage on TSZ-stimulated necroptosis (HCT-116 cells; HCT-116 cells, UDPG+TSZ): remarkably attenuated the UDP-glucose derived damage on TSZ-stimulated necroptosis
Brc1ccccc1NCc1nc2ccccc2o1 [5e] | 8.29 | 
